# In all, about 300,000 compounds went through this assay and about 1,200 (0.4%) were called active. Inconclusive means that the source gave no clear call. Such entries were picked first, then a sample of the others. Calls follow the shape of the dose curve; as a rule, active = well fitted inhibition curve with a large enough effect; inconclusive = small, poorly fitted or top-dose-only effect, or another doubt; inactive = no such curve, though single readings can be large or run the other way. A potency beside an inconclusive call is a rough fit, not a confirmed value.
# Biological target: Lysosomal alpha-glucosidase (Homo sapiens) (UniProt P10253)
# Assay: qHTS Assay for Inhibitors and Activators of Human alpha-Glucosidase Cleavage of Glycogen
# Conditions: recombinant GAA, glycogen substrate, Amplex Red glucose oxidase fluorescence; series mostly up to 76.4 µM
# Outline: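 Recombinant human alpha-glucosidase (4 nM final) hydrolysed bovine liver glycogen (30 ug) for 40 min at 37 C in pH 5.0 citrate/phosphate with 0.01% Tween-20. Released glucose detected by glucose oxidase/Amplex Red, Ex 573/Em 610 nm. Compounds up to 77 uM; AC50 from Hill fits.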
# Potency is read from the fitted curve at half-maximal effect.
row,SMILES,Potency
1,CCCOc1ccc(/C=N/Nc2ccccn2)cc1OC,"inconclusive: 39.5 µM [inhibitor, single point]"
2,COc1cccc(Oc2cn[nH]c2-c2ccc(O)cc2O)c1,"inconclusive: 11.2 µM [inhibitor, partial curve]"
3,CCOc1ccccc1C1C(C#N)=C(N)Oc2n[nH]c(CC)c21 (stereo unspecified),inactive
4,CNc1ccc(-c2nc(-c3ccccn3)no2)cc1[N+](=O)[O-],inactive
5,O=C(COc1ccc([N+](=O)[O-])cc1)NNC(=O)c1cccnc1,inactive
6,CC(C)CNC(=O)CC1Nc2ccccc2NC1=O (stereo unspecified),"inconclusive: 50.1 µM [activator, single point]"
7,Cc1cc(O)ccc1Nc1nc(-c2sc(N)nc2C)cs1,"inconclusive: 50.1 µM [inhibitor, single point]"
8,[O-][N+]1=C(c2cccs2)CN(O)C1,"inconclusive: 39.8 µM [inhibitor, partial curve]"
9,Cn1c(=O)c2[nH]c(NCC3CCCO3)nc2n(-c2ccccc2)c1=O (stereo unspecified),"inconclusive: 25.1 µM [inhibitor, partial curve]"
10,CCOC(=O)C1CCN(Cc2nnnn2CCc2ccccc2)CC1,inactive
11,O=S(=O)(N/N=C\c1ccc(-c2ccccc2Cl)o1)c1ccccc1,active: 24.9 µM
12,CCn1cc(S(=O)(=O)c2ccccc2)c(=O)c2cc(F)c(N3CCCC3)cc21,inactive
13,CCN1CCCc2cc(CN(CCN3CCOCC3)C(=S)Nc3ccc(C)cc3)ccc21,"inconclusive: 15.7 µM [inhibitor, partial curve]"
14,Cc1ccc(CNC(=O)CCc2c(C)nc3nc(C)nn3c2C)cc1,"inconclusive: 11.2 µM [inhibitor, single point]"
15,CCOc1cc(C2C3=C(CC(C)(C)CC3=O)N(CCOC)C3=C2C(=O)CC(C)(C)C3)ccc1O,"inconclusive: 17.8 µM [inhibitor, partial curve]"
16,Oc1ccc(/C=N/N2CCCCC2)cc1O,"inconclusive: 7.94 µM [inhibitor, full curve]"
17,Oc1ccccc1Nc1nc(NCc2ccco2)c2ccccc2n1,active: 11.2 µM
18,CCOC(=O)c1[nH]c2ccc(OC)cc2c1NC(=S)N1CCN(c2ccccn2)CC1,"inconclusive: 39.8 µM [inhibitor, single point]"
19,O=c1c(-c2ccc(O)cc2O)coc2cc(O)cc(O)c12,"inconclusive: 31.6 µM [inhibitor, single point]"
20,COCCCn1c(-c2ccco2)nc2ccccc2c1=O,inactive
21,COC(=O)Cc1c(C)nc2nc(-c3ccccc3)[nH]n2c1=O,"inconclusive: 39.5 µM [inhibitor, single point]"
22,O=C(/C=C/c1ccccc1)N1CCN(c2cccc(Cl)n2)CC1,"inconclusive: 11.2 µM [inhibitor, partial curve]"
23,CCOC(=O)CSC1=C(C#N)C(c2ccco2)C(C(=O)OCc2ccccc2)=C(C)N1 (stereo unspecified),"inconclusive: 39.8 µM [inhibitor, single point]"

row,SMILES,Potency
1,COc1ccccc1NNC(=O)c1cc(C(C)(C)C)nn1Cc1ccccc1,"inconclusive: 50.1 µM [inhibitor, single point]"
2,O=c1[nH]c(CN2CCN(c3ccccc3O)CC2)nc2scc(-c3ccccc3Cl)c12,"inconclusive: 31.6 µM [inhibitor, partial curve]"
3,CC1(C)C(N(O)C(=O)Nc2ccc(Cl)cc2)N(c2ccc(Cl)cc2)C(=O)N1CC(=O)NN (stereo unspecified),"inconclusive: 12.6 µM [inhibitor, partial curve]"
4,C/C(CC(=O)Nc1ccc(C)c(Cl)c1)=N\NC(=O)c1ccncc1,inactive
5,COc1ccc(Nc2nc(NCc3ccco3)nc(N/N=C/c3ccccc3)n2)cc1,"inconclusive: 31.4 µM [inhibitor, single point]"
6,COc1ccc(C2Nc3cccc4cccc(c34)N2)cc1Br,"inconclusive: 11.2 µM [inhibitor, single point]"
7,O=C(Cc1noc2ccccc12)NNC(=S)Nc1ccccc1,"inconclusive: 50.1 µM [inhibitor, single point]"
8,CCOc1ccc(NC(=O)c2ccccn2)cc1,inactive
9,CCOC(=O)C1CCN(C(=O)Cn2ncc3c4ccccc4n(Cc4ccc(F)cc4)c3c2=O)CC1,inactive
10,CC(=O)N(O)CCCCCNC(=O)CCC(=O)N(O)CCCCCNC(=O)CCC(=O)N(O)CCCCCN,"inconclusive: 10 µM [inhibitor, partial curve]"
11,CCOC(=O)Nc1sc(=S)n(C)c1C,active: 7.88 µM
12,CCCCC12CN3CC(C)(CN(C1)C3c1ccc(O)c(OC)c1)C2=O (stereo unspecified),"inconclusive: 28.2 µM [inhibitor, single point]"
13,COc1ccc(Cn2cc(C(=O)c3ccc(C)c(C)c3)c(=O)c3ccccc32)cc1,inactive
14,O=C(Cn1cc(S(=O)(=O)Cc2cccc(Cl)c2)c2ccccc21)Nc1ccccc1Cl,inactive
15,O=C(O)c1ccc(N/N=C/c2ccc3ncccc3c2)cc1,"inconclusive: 17.6 µM [inhibitor, partial curve]"
16,C=C(C)CSc1nc2sc3c(c2c(=O)n1-c1ccc(C)cc1)CCN(C)C3,"inconclusive: 50.1 µM [activator, single point]"
17,COc1ccc(CNN2CCCCC2C(=O)Nc2ccc(OC)c(OCC(C)C)c2)cc1OC (stereo unspecified),"inconclusive: 31.6 µM [inhibitor, single point]"
18,CCOc1ccc(CCNC(=O)CCCc2nnc3n(CC)c(=O)c4sccc4n23)cc1OCC,inactive
19,Cc1coc2cc3oc(=O)c(CC(=O)NCc4cccc(Cl)c4)c(C)c3cc12,inactive
20,Nc1cc(C(=O)O)ccc1Nc1ccc(F)c(F)c1,active: 12.5 µM
21,Cc1cccc2cc(C#N)c(NCc3ccccc3)nc12,"inconclusive: 44.7 µM [activator, single point]"
22,CCCCCn1c(SCC(=O)OC)nc2c1c(=O)[nH]c(=O)n2C,"inconclusive: 5.62 µM [inhibitor, full curve, poor fit]"
23,Cc1ccc(C2=NC(=O)/C(=C/c3cc(O)c(O)c(Br)c3)S2)cc1,"inconclusive: 22.2 µM [inhibitor, partial curve]"

# Reference: PubChem BioAssay AID2100 (National Center for Advancing Translational Sciences (NCATS), 2009)
